# Test results: PubChem BioAssay AID488969 (Vanderbilt High Throughput Screening Facility, 2010)
# The full ranking holds about 110,000 compounds; the median of “z-score” is about -0.1, and the highest 2% start at about 2. The list shows a part of the results.
# Target: Metabotropic glutamate receptor 8 (Rattus norvegicus) (UniProt P70579)
# Assay: rat mGluR8 modulators via GIRK flux, primary screen, cell-based, thallium flux, HTS (AID 488969)
# Conditions: HEK293 rat mGluR8, GIRK (G protein-gated inwardly rectifying potassium channel) thallium flux, FluoZin2; at 10 µM; stronger effect = higher value; submaximal glutamate (EC20) added with thallium
# Chain of UniProt P70579 (P70579 whole entry, looked up): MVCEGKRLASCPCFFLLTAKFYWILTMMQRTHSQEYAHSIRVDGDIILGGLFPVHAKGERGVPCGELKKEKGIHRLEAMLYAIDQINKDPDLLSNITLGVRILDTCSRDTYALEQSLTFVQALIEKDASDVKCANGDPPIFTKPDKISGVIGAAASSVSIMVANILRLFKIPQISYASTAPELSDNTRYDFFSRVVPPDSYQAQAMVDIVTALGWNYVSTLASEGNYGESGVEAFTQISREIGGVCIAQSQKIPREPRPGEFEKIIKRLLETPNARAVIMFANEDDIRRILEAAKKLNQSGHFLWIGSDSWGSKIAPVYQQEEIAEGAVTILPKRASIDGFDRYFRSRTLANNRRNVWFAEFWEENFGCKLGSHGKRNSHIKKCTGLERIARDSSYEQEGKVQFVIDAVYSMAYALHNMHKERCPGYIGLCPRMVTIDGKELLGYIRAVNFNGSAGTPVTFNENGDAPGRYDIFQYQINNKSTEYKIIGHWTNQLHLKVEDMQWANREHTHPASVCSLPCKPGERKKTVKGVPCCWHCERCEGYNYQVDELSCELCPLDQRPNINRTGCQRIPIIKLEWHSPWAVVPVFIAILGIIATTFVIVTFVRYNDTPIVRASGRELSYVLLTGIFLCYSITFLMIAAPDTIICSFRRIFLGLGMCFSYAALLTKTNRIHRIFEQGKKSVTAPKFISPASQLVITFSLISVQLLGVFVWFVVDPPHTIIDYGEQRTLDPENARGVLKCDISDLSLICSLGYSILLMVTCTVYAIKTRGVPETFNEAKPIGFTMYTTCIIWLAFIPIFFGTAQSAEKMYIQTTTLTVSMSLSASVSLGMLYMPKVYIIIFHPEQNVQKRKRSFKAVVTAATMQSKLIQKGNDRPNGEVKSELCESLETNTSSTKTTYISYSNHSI
row,Compound,z-score
1,Cc1nc(CNS(=O)(=O)c2cccnc2)cs1,0.571
2,O=C(CNC(=O)c1ccccc1)NCC(=O)OCc1ccc(Cl)cc1,-0.177
3,Cc1cc(C)c2c(C)nn(-c3ccccc3)c2n1,-0.275
4,O=C(/C=C/Nc1ccc(F)c(Cl)c1)c1ccco1,0.442
5,CCC(=O)N1CCN(CCN=CC2=C(O)CC(C)(C)CC2=O)CC1,-0.167
6,COc1ccc(/C=C(\C#N)C(=O)N2CCOCC2)cc1Br,-0.62
7,CCCCn1c(SCC(=O)NCc2ccco2)nc2cc(S(N)(=O)=O)ccc21,-0.285
8,CCCc1cc(C(=O)Nc2cc(C)nn2-c2ccccc2)no1,-0.702
9,CC(C)C1Oc2ccccc2N(CC(=O)N(Cc2ccccn2)C2CC2)C1=O (stereo not drawn),0.521
10,O=C(Cn1nnc(-c2ccc(CN3CCOCC3)cc2)n1)NC1CCCCC1,-0.106
11,COc1ccc(CCNC(=O)C2(C)CCC(=O)N2Cc2ccc3c(c2)OCO3)cc1OC (stereo not drawn),0.595
12,CC1(C)CNC(=O)C=C(c2ccccc2)C1,-0.176
13,CC1CN(CC(O)COC(c2ccc(Cl)cc2)c2ccc(Cl)cc2)CC(C)O1 (stereo not drawn),-0.138
14,CCc1c(C(=O)Nc2ccncc2)csc1C,0.523
15,O=C(CSc1ncn[nH]1)N1N=C2/C(=C/c3ccccc3)CCCC2C1c1ccccc1 (stereo not drawn),0.219
16,Cc1ccccc1-n1c(SCc2csc(Nc3ccccc3)n2)nnc1-c1cccnc1,-0.897
17,COc1ccc(/C=N/Nc2nc(Nc3ccccc3)nc(N3CCCCC3)n2)c(OC)c1,0.74
18,COc1cc(OC)nc(N/N=C(\c2ccccc2)c2ccncc2)n1,-0.317
19,O=C(Nc1ccccc1)c1ccn[nH]1,0.112
20,O=S(=O)(c1ccc(F)cc1)N1CCC(N2CCCCCC2)CC1,-0.132
21,COc1cc(C)c(Cl)cc1S(=O)(=O)NCCCN1CCOCC1,-0.146
22,Nc1ccc(Sc2ccccc2CC(=O)O)cc1,1.21
23,CCOC(=O)c1oc2ccccc2c1NC(=O)COc1ccc(F)cc1,-0.456
24,CC(=O)NCC(=O)OCC(=O)c1ccc(Br)cc1,-0.187
25,COc1ccc(NC(=O)COC(=O)c2ccc(OCc3ccc(Cl)cc3Cl)c(OC)c2)c(OC)c1,-0.225

row,Compound,z-score
1,CCOc1c2ccc(C(=O)NCc3ccc4c(c3)OCO4)cc2nn1CCOC,-0.276
2,Cc1cc2c(c(=O)n1CCN(C)C)C(c1ccc(Cl)cc1)C(C#N)=C(N)O2 (stereo not drawn),-1.32
3,CCOC(=O)C1=C(C)NC(=O)NC1c1cccnc1 (stereo not drawn),0.62
4,Cc1csc(NC(=O)COc2ccc3c(C)cc(=O)oc3c2)n1,-0.415
5,CCC/C=N/NC(=O)c1cc(-c2ccccc2)nc2ccccc12,-0.317
6,Cc1ccccc1NC(=O)c1sc2nc3c(c(-c4ccco4)c2c1N)CCC3,-0.383
7,Cc1cc(C)cc(NC2=NCC(=O)N2Cc2ccccc2)c1,-0.354
8,CCCCNC(=O)CCCn1c(=S)[nH]c2cc3c(cc2c1=O)OCO3,-0.47
9,CCC(Sc1nnnn1-c1ccccc1)C(=O)NC(C)c1ccccc1 (stereo not drawn),0.324
10,CC(C)=CCCC1=CCC2C(=O)NNC(=O)C2C1 (stereo not drawn),-0.0401
11,Clc1cccc(CSc2nccn2-c2ccccc2)c1,0.209
12,Cc1ccnc(NS(=O)(=O)c2ccc(NC(=O)C34CC5CC(C)(CC(C)(C5)C3)C4)cc2)n1,-0.414
13,CCCCC(=O)NCCc1cc2ccc(OC)cc2[nH]c1=O,0.0337
14,O=C1CN(C(=O)c2ccc(Br)o2)C(c2ccccc2)c2cc(F)ccc2N1 (stereo not drawn),-0.455
15,COc1ccc(-c2nnc(-c3cc(OC)c(OC)c(OC)c3)o2)cc1OC,0.337
16,COC(=O)Nc1c(-c2ccccc2)nc2ccccn12,-0.126
17,Cc1noc(NS(=O)(=O)c2ccc(NC(=O)c3ccoc3C)cc2)c1C,0.00366
18,CC(NC(=O)CSc1nnc(-c2cc3cc(Cl)ccc3o2)n1C)c1ccccc1 (stereo not drawn),-0.119
19,CCCCNC(=S)Nc1ccc2nc3n(c(=O)c2c1)CCCCC3,-0.743
20,C=CCSc1n[nH]c(-c2ccc(OC)cc2)n1,-0.102
21,Cc1ccc(-c2nnn(CC(=O)NC3CCN(Cc4ccccc4)CC3)n2)cc1,0.381
22,CC(Oc1ccc(Cl)cc1Cl)C(=O)NCCC1=CCCCC1 (stereo not drawn),-0.115
23,Cc1ccc(C)c(OCC(=O)Nn2c(C)nc3ccccc3c2=O)c1,-0.556
24,O=C(COc1nnnc2ccccc12)N1CCCc2ccccc21,-0.0964
25,N#Cc1c(N)n[nH]c1-c1cc2c([nH]1)CCCC2,-0.142

row,Compound,z-score
1,O=C(NCCCN1CCOCC1)c1ccccc1NS(=O)(=O)c1cc([N+](=O)[O-])ccc1Cl,0.0883
2,Cc1cc(NCCO)nc(-n2nc(C)cc2C)n1,-0.0242
3,COc1ccccc1NC(=O)CSc1nc2nc(C)cc(C)c2c(=O)[nH]1,0.244
4,Oc1ccc(O)c(-c2cnns2)c1,0.00638
5,CCCOc1ccc(-c2nc(C#N)c(N3CCC(C(N)=O)CC3)o2)cc1,-0.0387
6,COc1cccc(Nc2nc(N)nc(-c3oc4ccccc4c3C)n2)c1,0.16
7,Cc1nn(C(C)(C)C)c(OC(=O)c2ccc(Br)o2)c1Sc1ccccc1,-0.354
8,O=C(Nc1ccccc1)N1CCC(n2c(=O)[nH]c3ccccc32)CC1,0.118
9,Cc1cccc(C)c1NC(=O)C1(NC(=O)Cn2cccc([N+](=O)[O-])c2=O)CCCCC1,0.0735
10,Cc1onc(-c2ccccc2Cl)c1C(=O)NCc1ccccn1,-0.15
11,COc1ccc(C(=O)Nc2nc3ccccc3c(=O)[nH]2)cc1,0.346
12,OCCNCc1ccc(-c2ccccc2)cc1,0.13
13,COc1cc2c(cc1OC)-c1nnc(-c3cccs3)n1C(C)(C)C2,0.401
14,CC(=O)NCCc1csc(-c2ccccc2)n1,-0.00683
15,CCc1ccc2c(c1)[C@H]1OCC[C@H]1[C@@H](c1cccs1)N2,-0.344
16,CCC1CCCCN1C(=O)Cn1c(C(=O)OC)cc2sc(Cl)cc21 (stereo not drawn),-0.00236
17,CS(=O)(=O)N(CC(=O)N/N=C/c1cc([N+](=O)[O-])ccc1Cl)c1ccccc1,-0.095
18,c1ccc(C2CC3CC(c4ccccc4)N2O3)cc1 (stereo not drawn),-0.18
19,Cc1cc(C)c2c(n1)nn1c(NCCCN3CCOCC3)cc(C)nc21,0.0454
20,CC1CCCN(C(=O)Cn2c(-c3nonc3N)nc3ccccc32)C1 (stereo not drawn),-1.12
21,COc1ccc(NC(=O)/C(=C/c2cccnc2)NC(=O)c2cccs2)cc1,0.00768
22,O=C(CSC1=NCCS1)N1CCc2ccccc21,0.0931
23,CC(C)(C)CC(=O)Nc1nn[nH]n1,-0.0556
